About 65 (0.1%) of roughly 45,000 compounds were called active. The call rests on the fitted dose curve; in most records, active means well fitted activation curve with a large enough effect; inconclusive means small, poorly fitted or top-dose-only effect; inactive means no such curve, though single readings can be large or run the other way. Some of the results follow.
Each compound was assayed against Galactocerebrosidase (Homo sapiens) (UniProt P54803) (assay: A Novel Cell-Based Assay to Identify Small Molecules for B -Galactocerebrosidase). Details: 145M-Twi-hGALC-G270D cells (Twitcher mouse brain line with human GALC G270D), HMU-beta-Gal fluorescence, 48 h; series mostly up to 57.5 µM; activation: at the top concentration.
In short: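 Mutant human GALC (G270D), stably expressed in a Twitcher mouse brain cell line lacking endogenous GALC, is measured in live-treated cells via 6-hexadecanoylamino-4-methylumbelliferyl-β-galactoside hydrolysis (0.1 mM final, pH 5.2) with fluorescent detection.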
Further: 0% is about no effect; nearly all actives have a fitted effect of over 65% in size.

Sequence of UniProt P54803 (P54803 whole entry, looked up): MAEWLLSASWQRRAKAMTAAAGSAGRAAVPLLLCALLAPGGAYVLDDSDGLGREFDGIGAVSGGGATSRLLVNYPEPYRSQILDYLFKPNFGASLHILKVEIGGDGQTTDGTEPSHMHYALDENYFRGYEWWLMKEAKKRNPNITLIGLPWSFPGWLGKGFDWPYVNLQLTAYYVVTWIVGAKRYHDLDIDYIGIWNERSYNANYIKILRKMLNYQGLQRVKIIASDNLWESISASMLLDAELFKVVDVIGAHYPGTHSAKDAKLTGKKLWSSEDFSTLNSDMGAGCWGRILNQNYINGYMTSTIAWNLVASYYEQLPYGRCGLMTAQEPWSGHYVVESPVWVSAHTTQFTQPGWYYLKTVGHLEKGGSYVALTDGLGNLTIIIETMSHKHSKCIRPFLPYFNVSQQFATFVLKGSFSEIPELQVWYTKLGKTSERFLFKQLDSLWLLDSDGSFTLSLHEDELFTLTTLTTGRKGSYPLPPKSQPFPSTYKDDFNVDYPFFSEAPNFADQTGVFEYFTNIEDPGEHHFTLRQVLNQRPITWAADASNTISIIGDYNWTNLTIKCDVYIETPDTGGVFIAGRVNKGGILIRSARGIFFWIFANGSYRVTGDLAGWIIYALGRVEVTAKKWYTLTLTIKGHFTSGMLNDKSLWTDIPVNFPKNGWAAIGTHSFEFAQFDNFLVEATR

activation, inactive:
Oc1ccccc1 -11.5%, Cc1cccc(OCC(=O)NCC2(N3CCN(C)CC3)CCCCC2)c1C 0.294%, Cc1ccc(NC(=O)c2ccc3snnc3c2)cc1Cl -13.5%, CCc1ccc(S(=O)(=O)c2nnn(-c3ccc(F)cc3)c2N)cc1 -20.2%, CCCNC(=O)C(=O)NCC(c1ccc2c(c1)OCO2)N1CCOCC1 (stereo unspecified) 3.44%, COc1ccc(OCc2ccc(-c3nc(C#N)c(N4CCC(C)CC4)o3)o2)cc1 -38.5%, COc1ccccc1N1CCN(S(=O)(=O)c2ccc3[nH]c4c(c3c2)CCCC4)CC1 -13.3%, CCC(=O)N1CCc2cc(Br)cc(S(=O)(=O)CCC(=O)N3CCN(c4ccccc4OC)CC3)c21 -16.7%, COc1ccc(-c2ccnc3[nH]n(-c4ccccc4)c(=O)c23)cc1 -16.5%, CCc1ccc(NC(=O)C2CCCN(S(=O)(=O)c3ccc4c(c3)CCCN4C(C)=O)C2)cc1 (stereo unspecified) -18.8%, Cc1ccc(-n2ncc(C(=O)N3CCCCC3)c2C2CCN(C(=O)OC(C)(C)C)CC2)cc1C -5.34%, COc1ccc(C(=O)N2CC(=O)Nc3ccc(C)cc3C2c2ccccc2)c(OC)c1 (stereo unspecified) -6.85%, COc1ccc(/C=C\c2onc(C)c2S(=O)(=O)N2CCC(C(=O)Nc3ccc(Cl)cc3)CC2)cc1 -13.2%, CCOc1cc(-c2nnc(SCC(=O)NCc3ccccc3)nc2-c2ccc(OC)c(OCC)c2)ccc1OC -4.24%, Cc1cc(C)n(-c2nc3ccccc3nc2Nc2ccc(C(C)C)cc2)n1 -11%, CCOCCCNC(=O)c1ccc2c(c1)NC(=O)C(CS(=O)(=O)Cc1ccc(F)cc1Cl)N2 (stereo unspecified) 5.32%, Cc1cc2[nH]c(=O)c(=O)[nH]c2cc1S(=O)(=O)NCc1ccc(F)cc1 -5.81%, O=C(NC1CCCCCC1)C1CCN(C(=O)N2CCOc3ccc(Cl)cc32)CC1 -17.5%, Cc1ccc(C2=NN(CC(=O)NCCCN(CC(C)C)CC(C)C)C(=O)CC2)cc1 1.02%, CCCCc1nn2c(=O)cc(COC(=O)c3cccc(NC(=O)COc4ccccc4)c3)nc2s1 -30.2%, CCOc1cccc(NC(=O)C2CC(=O)N(C)C(=Nc3cccc(OC)c3)S2)c1 (stereo unspecified) 16%, CCN(CCCNC(=O)CSc1cc(=O)n(C)c2ccccc12)c1ccccc1 -24.9%, O=C(Nc1ccc(Cl)cc1Cl)c1cc(S(=O)(=O)N2CCC3(CC2)OCCO3)ccc1F -15.2%, Cc1cc(C)c(NC(=O)C(C)n2c(=O)cc(C)c3c(C)nn(-c4ccccc4)c32)c(C)c1 (stereo unspecified) -19%, COCCNC(=O)CCn1c(=O)c2cc(OC)c(OC)cc2n(CC(=O)Nc2ccc(F)c(Cl)c2)c1=O -20.3%, CC(=O)N1CCc2c(sc3c2c(=O)n(-c2ccccc2)c(=O)n3CC(=O)c2ccc(Cl)cc2)C1 -21.9%, O=C(NCc1cccc(F)c1)C1CCN(c2nc3ccccc3nc2C(F)(F)F)CC1 -20.6%, CCc1ccccc1Nc1nn2c(=O)c3ccc(C(=O)NCc4ccc(C)cc4)cc3nc2s1 -4.59%, Cc1cc(C)c(NC(=O)Cn2c(=O)n(-c3cccc(C(F)(F)F)c3)c(=O)c3c(C)c(C)sc32)c(C)c1 -23.9%, CC(=O)N1CCOc2cc(S(=O)(=O)NCc3ccccc3Cl)c(C)cc21 6.05%, O=C(O)c1ccc(Nc2nc3ccccc3c3nncn23)cc1 -5.04%, COc1ccccc1NC(=O)C(Cc1ccccc1)NS(=O)(=O)c1ccc2c(c1)CCN2C(C)=O (stereo unspecified) -0.377%, CCN(C(=O)c1ccc2c(c1)N(Cc1cccc(Cl)c1)C(=O)c1ccccc1S2=O)c1ccccc1 (stereo unspecified) -1.23%, CCC(=O)N1c2ccccc2CC1C(=O)NCCCN1CCN(c2cc(C)ccc2C)CC1 (stereo unspecified) -7.3%, COc1ccc(-c2cc3nc(N)cc(=O)n3[nH]2)cc1 2.73%, CC(C)(C)C(=O)Nc1cc(-c2cccc(Br)c2)nn1-c1ccccc1 -16%, COCCCNC(=O)c1ccc(Cn2c(=O)c3ccccc3n(CC(N)=O)c2=O)cc1 -4.6%, CC(=O)Oc1ccccc1C(=O)Nc1ncc([N+](=O)[O-])s1 -9.03%, CCOC(=O)c1ccc(NC(=O)CSc2nc3ncc(Br)c(C)c3[nH]2)cc1 -19.1%, Cn1nc(-c2ccc(OCC(=O)Nc3cccc(C(F)(F)F)c3)cc2)c2ccccc2c1=O 2.08%, Cc1cccc(C)c1OCc1cc(=O)n2c(-c3ccccc3)csc2n1 -39.3%, Cc1ccc(C(=O)Nc2ccc(F)cc2)cc1S(=O)(=O)N1CCCCCC1 -24.2%, COc1ccc(NC(=O)c2cc(S(=O)(=O)N3CCOCC3)cn2C)cc1Cl -2.4%, Cc1ccc(C)c(CSc2nc3c([nH]c4ccccc43)c(=O)n2C)c1 -4.93%, O=C(NCCCc1nc2ccccc2n1Cc1ccc(F)cc1)C1CCCCC1 -4.05%, CC(C)c1ccc2oc(-c3ccc(Cl)c(NC(=O)c4cccs4)c3)nc2c1 -11.7%, CCOc1ccc(NC(=O)CCCc2nc(-c3cccc(OC)c3)no2)cc1 -12.1%, COc1cccc2c1cc1c(=O)n(CC(=O)N3CCN(c4ccccc4F)CC3)nc(C)n12 -2.33%, O=C1CS(=O)(=O)C2(C(=O)Nc3ccccc32)N1c1cccc(Cl)c1 (stereo unspecified) -25%, Cc1ccc(CNC(=O)c2sc3nc(C)cc(C)c3c2-n2cccc2)cc1 -10.3%, O=C(NCCc1nc2ccccc2n1Cc1ccccc1)c1ccco1 -17.5%, Cc1ccc(NS(=O)(=O)c2cnc(N)nc2)c(C)c1 -2.08%, CCN(CC)CCNC(=O)C1CCN(c2cc(C)nc3c(-c4ccc(Cl)cc4)c(C)nn23)CC1 10.4%, Cc1ccc(CN2CCCn3nc(C(=O)NCc4ccc(OC(C)C)cc4)cc3C2=O)cc1 -25.2%, CCN(CC)CCNC(=O)c1cc(-c2ccc(Br)s2)nc2ccccc12 -11.8%, Cc1nc(-n2nc(C)c(Cc3ccc4c(c3)OCO4)c2C)sc1C(=O)Nc1cccc(Cl)c1 -3.34%, CCc1nn(CC(=O)Nc2cc(C)cc(C)c2)c(=O)c2cc3sccc3n12 -22.6%, CSc1ccc(CCNC(=O)CCc2c(C)nc3c(c(C)nn3-c3ccc(C)c(C)c3)c2C)cc1 -15.7%, COc1ccc2nc(NC(=O)c3nc(S(=O)(=O)Cc4ccccc4)ncc3Cl)sc2c1 -19.9%, CCOC(=O)c1cccc(NC(=O)c2ccc3nc(C(C)C)oc3c2)c1 -11.5%, Cc1ccc(NC(=O)CSc2n[nH]c(-c3ccc(F)cc3)n2)cc1F -19.7%
